Test results reported in patent US5843437A, “A82846 antibiotics” (Eli Lilly and Company, priority 1995, dated 1998).
≈ marks a conversion by molar mass, not a printed value.

Tested on: Staphylococcus aureus S13E
Format: cell-based
Settings: S. aureus S13E; agar dilution
Method: The MIC's in Tables VII and VIII were determined by standard agar-dilution assays.

Compound	MIC [µg/mL]
CN[C@H](CC(C)C)C(=O)N[C@H]1C(=O)N[C@@H](CC(N)=O)C(=O)N[C@H]2C(=O)N[C@H]3C(=O)N[C@H](C(=O)N[C@@H](C(=O)O)c4cc(O)cc(O)c4-c4cc3ccc4O)[C@H](O[C@@H]3C[C@@](C)(N)[C@H](O)[C@@H](C)O3)c3ccc(cc3)Oc3cc2cc(c3O[C@H]2O[C@@H](CO)[C@H](O)[C@@H](O)[C@@H]2O[C@H]2C[C@](C)(N)[C@@H](O)[C@H](C)O2)Oc2ccc(cc2Cl)[C@H]1O [A82846A]	0.125 (≈ 0.0802 µM)
CN[C@H](CC(C)C)C(=O)N[C@H]1C(=O)N[C@@H](CC(N)=O)C(=O)N[C@H]2C(=O)N[C@H]3C(=O)N[C@H](C(=O)N[C@H](C(=O)O)c4cc(O)cc(O)c4-c4cc3ccc4O)[C@H](O[C@H]3C[C@](C)(N)[C@@H](O)[C@H](C)O3)c3ccc(c(Cl)c3)Oc3cc2cc(c3O[C@@H]2O[C@H](CO)[C@@H](O)[C@H](O)[C@H]2O[C@H]2C[C@](C)(N)[C@@H](O)[C@H](C)O2)Oc2ccc(cc2Cl)[C@H]1O [A82846B]	0.125 (≈ 0.0785 µM)
CN[C@@H](CC(C)C)C(=O)N[C@H]1C(=O)N[C@H](CC(N)=O)C(=O)N[C@H]2C(=O)N[C@H]3C(=O)N[C@@H](C(=O)NC(C(=O)O)c4cc(O)cc(O)c4-c4cc3ccc4O)[C@@H](O[C@H]3C[C@](C)(N)[C@H](O)[C@@H](C)O3)c3ccc(cc3)Oc3cc2cc(c3O[C@H]2O[C@@H](CO)[C@@H](O)[C@H](O)[C@@H]2O[C@H]2C[C@](C)(N)[C@H](O)[C@@H](C)O2)Oc2ccc(cc2)[C@@H]1O (stereo partly drawn) [A82846C]	1 (≈ 0.656 µM)
